Source: PubChem BioAssay AID360 (National Center for Advancing Translational Sciences (NCATS), 2006)
About 550 (1.1%) of roughly 48,000 compounds were called active. Inconclusive results (about 4%) are left out. No stated cut-off is given here; in the data, active means potency below about 15 µM; inconclusive means mostly about 16 µM to 33 µM; inactive means weaker than that. Some of the results follow.

What follows are molecules tested against Lysosomal acid glucosylceramidase (Homo sapiens) (UniProt P04062) (assay: Glucocerebrosidase). Details: purified enzyme, resorufin glucoside fluorescence (screen aimed at inhibitors), 20 min.
UniProt P04062, sequence (P04062 whole entry, looked up): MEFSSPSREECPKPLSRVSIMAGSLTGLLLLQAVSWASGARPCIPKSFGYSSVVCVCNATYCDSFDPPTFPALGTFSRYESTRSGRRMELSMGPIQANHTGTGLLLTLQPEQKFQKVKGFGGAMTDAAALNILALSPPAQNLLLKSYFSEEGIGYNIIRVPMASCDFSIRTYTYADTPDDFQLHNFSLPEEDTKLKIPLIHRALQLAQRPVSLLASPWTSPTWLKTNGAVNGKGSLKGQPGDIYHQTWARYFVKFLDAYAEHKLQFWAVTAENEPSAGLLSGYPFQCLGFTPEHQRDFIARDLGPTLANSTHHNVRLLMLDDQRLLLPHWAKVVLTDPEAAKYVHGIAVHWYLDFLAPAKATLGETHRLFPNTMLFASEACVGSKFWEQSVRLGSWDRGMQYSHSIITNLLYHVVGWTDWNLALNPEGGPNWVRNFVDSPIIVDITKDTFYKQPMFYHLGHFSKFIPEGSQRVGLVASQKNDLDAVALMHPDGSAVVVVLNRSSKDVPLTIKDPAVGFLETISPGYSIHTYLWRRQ
Outline: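 Normal human glucocerebrosidase (0.2 nM final) was assayed with resorufin β-D-glucopyranoside (30 uM final) in 50mM citric acid/KH2PO4, 10mM sodium taurocholate, 0.01% tween-20, pH 5.9. Compounds were titrated; fluorescence (Ex 548, Em 600) read after 20 min at RT.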
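Further: the screen sought inhibitors.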
Potency means the concentration at half of the fitted maximal effect.

Potency, inactive:
Cc1nnc(SCC(=O)N2c3ccccc3CC2C)s1 (stereo not drawn) > 76.9 µM
CSc1nc(C2CC2)cc(-c2cccs2)c1C#N
Cc1cccc(CS(=O)(=O)Cc2ccc(C(=O)NCC3CCCO3)o2)c1 (stereo not drawn) > 76.9 µM
Cc1cc(C)c(S(=O)(=O)N(C)CC(N)=O)c(C)c1 > 76.9 µM
Cc1ccc2oc(-c3cccc(NC(=O)C4CCCO4)c3)nc2c1 (stereo not drawn) > 76.9 µM
COC(=O)[C@H](CCSC)NC(=O)Nc1ccc(OC)cc1 > 76.9 µM
COCCSc1ccccc1C(=O)Nc1nncs1 > 76.9 µM
O=C1c2ccccc2NC(c2ccc(Cl)cc2Cl)N1O (stereo not drawn) > 76.9 µM
COc1ccc(-c2cc(C(=O)N3CCCc4ccccc43)no2)cc1OC > 76.9 µM
Cc1cc(C)n(S(=O)(=O)c2ccc(C)c(C)c2C)n1 > 76.9 µM
CCN(CC(=O)Nc1cccc(C(C)=O)c1)S(=O)(=O)c1ccc(OC)cc1 > 76.9 µM
COc1cccc(C(=O)CSc2nnc(COc3cccc4cccnc34)o2)c1 > 76.9 µM
O=c1[nH]nc(Sc2ncnc3sccc23)n1CCc1ccccc1 > 76.9 µM
O=C(c1ccc(Cl)cc1)N1CCCOC1 > 76.9 µM
c1nc(N2CCCC2)c2[nH]cnc2n1 > 76.9 µM
O=C(NCc1ccco1)C(Cc1ccccc1)NS(=O)(=O)c1cccc2nsnc12 (stereo not drawn) > 76.9 µM
CS(=O)(=O)N1CCC(C(=O)NCCN2CCN(Cc3ccccc3)CC2)CC1 > 76.9 µM
C=C(C)c1cccc(C(C)(C)NC(=O)N2CCN(c3ncccn3)CC2)c1 > 76.9 µM
CCOc1ccccc1CN1C(=O)c2ccccc2C1C(=O)NCC1CCCO1 (stereo not drawn) > 76.9 µM
CCOC(=O)Nc1c(C(=O)OC)[nH]c2cccc(OC)c12 > 76.9 µM
Cc1cccc(-n2nnc(C(=O)Nc3ccc(F)cc3)c2N)c1 > 76.9 µM
O=C(NC1CCCCCCC1)c1ccco1 > 76.9 µM
O=C(Nc1ccc(S(=O)(=O)N2CCc3ccccc3C2)cc1)C1CCCO1 (stereo not drawn) > 76.9 µM
CCOC(=O)C1CCN(c2c(NCc3ccc(C(=O)NCCOC)cc3)c(=O)c2=O)CC1 > 76.9 µM
COc1ccc(N(CC(=O)NCc2ccco2)S(C)(=O)=O)cc1 > 76.9 µM
CCC(NS(=O)(=O)c1ccc(C)cc1)C(=O)N1CCC2(O)CCCCC2C1 (stereo not drawn) > 76.9 µM
c1coc(-c2nc(-c3ccncc3)no2)c1 > 76.9 µM
COc1ccc(N2CCN(C(CNS(=O)(=O)c3cccs3)c3cccnc3)CC2)cc1 (stereo not drawn) > 76.9 µM
COCCNC(C)C(=O)C12CC3CC(CC(C3)C1)C2 (stereo not drawn) > 76.9 µM
CC(C)=CC(=O)Nc1ccccc1C(N)=O > 76.9 µM
CSc1n[nH]c(NC2=CC(=O)CCC2)n1 > 76.9 µM
COc1ccccc1-c1nnc2sc(COc3ccc(Cl)cc3Cl)nn12 > 76.9 µM
CCN(C1CCCCC1)S(=O)(=O)c1ccc(C(=O)O)cc1 > 76.9 µM
Cc1cccc2nc(Cn3c(=O)n(CCC(=O)NCc4ccco4)c(=O)c4ccccc43)cc(=O)n12 > 76.9 µM
Cc1noc(C)c1CSc1nc2cc(S(=O)(=O)N3CCOCC3)ccc2o1 > 76.9 µM
COc1ccccc1CN1C(=O)[C@@H]2C(CCC(N)=O)NC3(C(=O)Nc4c3ccc(Cl)c4C)[C@@H]2C1=O (stereo partly drawn) > 76.9 µM
Cc1cc(NC(=O)CSc2ccc3nnc(-c4cccc(F)c4)n3n2)no1 > 76.9 µM
COc1ccccc1CNC(=O)c1ccoc1C > 76.9 µM
CC(=O)Nc1nonc1NC(=O)CSC1=NCCS1 > 76.9 µM
O=C(CCN1C(=O)c2ccccc2C1=O)N1CCN(C(=O)c2ccccc2)CC1 > 76.9 µM
O=C1OC(Nc2ccc(F)cc2F)c2ccccc21 (stereo not drawn) > 76.9 µM
COc1ccc(OC)c(NC(=O)C23CCC(C)(C(=O)O2)C3(C)C)c1 (stereo not drawn) > 76.9 µM
COc1cc(OC)c(NC(=O)CCNS(=O)(=O)c2cc(Br)cnc2N)cc1Cl > 76.9 µM
CCn1c(=O)c(C(=O)CN2CCOCC2)c(N)n(Cc2ccccc2)c1=O > 76.9 µM
c1ccc(-n2ncc3c(N4CCN(c5ccccn5)CC4)nc(N4CCCCC4)nc32)cc1 > 76.9 µM
COCCNC(=O)c1ccc2ccccc2n1 > 76.9 µM
CC(C)C(=O)Nc1cccc(NC(=O)CCN2C(=O)c3ccccc3S2(=O)=O)c1 > 76.9 µM
Cc1nn(-c2ccccc2)c2nc(N)c(C#N)c(-c3ccc(F)cc3)c12 > 76.9 µM
c1ccc2c(CNCCN3CCOCC3)cccc2c1 > 76.9 µM
COc1ccccc1-n1c(CNC(=O)COc2ccccc2)n[nH]c1=S > 76.9 µM
CCC(C)c1ccc(O)c(NC(=O)c2ncn[nH]2)c1 (stereo not drawn) > 76.9 µM
O=C(NCCOc1ccccc1)c1ncn[nH]1 > 76.9 µM
CCCCNC(=O)CC1N=C2c3ccccc3N=C(SCC(=O)Nc3ccc(OC)cc3)N2C1=O (stereo not drawn) > 76.9 µM
COc1cc(C2C(C#N)=C(N)Oc3c2oc(CO)cc3=O)cc(OC)c1OC (stereo not drawn) > 76.9 µM
CC(C)(C)C1CCc2onc(C(=O)N3CCOCC3)c2C1 (stereo not drawn) > 76.9 µM
Cn1c(C(=O)OC(C(=O)NC2CCCCC2)c2ccncc2)cc2sccc21 (stereo not drawn) > 76.9 µM
COCCNC(=O)COc1cc(=O)n(C)c2ccccc12 > 76.9 µM
CC1=CCC(COC(=O)Nc2ccccc2)CC1 (stereo not drawn) > 76.9 µM
CCSc1nc2ccccc2n1CCC(=O)O > 76.9 µM
C=CCn1c(N)nc2ccccc21 > 76.9 µM
O=C1COc2ccc(OCc3ccc(F)cc3)cc21 > 76.9 µM
CCOC(=O)C1C(=O)NC(N2CCN(c3ccccc3)CC2)=NC1c1ccco1 (stereo not drawn) > 76.9 µM
Cn1c(SCc2ccccc2)nnc1-c1cccs1 > 76.9 µM
CC1CN(C(=O)Cc2ccc(-c3ccccc3)cc2)CC(C)O1 (stereo not drawn) > 76.9 µM
Nc1nonc1-n1nncc1-c1ccccc1 > 76.9 µM
C=CCN(CC=C)CC(O)Cn1c2ccccc2c2ccccc21 (stereo not drawn)
COc1ccc(OC)c(-c2c[n+](=O)c3c(n2[O-])CCCC3)c1 > 76.9 µM
O=C(NC1CCCCC1)NC1CCN(S(=O)(=O)Cc2ccccc2)CC1 > 76.9 µM
Cc1ccc(C)c2[nH]c(=O)c(CN(Cc3ccc4c(c3)OCO4)Cc3nnnn3Cc3ccco3)cc12 > 76.9 µM
COc1ccc(OC)c(S(=O)(=O)N2CCC(C(=O)NC(C)c3ccccc3)CC2)c1 (stereo not drawn) > 76.9 µM
CCC(OC(=O)CC1Sc2ccccc2NC1=O)C(=O)NCC1CCCO1 (stereo not drawn) > 76.9 µM
CC(C)(C)n1nnnc1C(c1cccs1)N(Cc1ccccc1)Cc1ccco1 (stereo not drawn)
COc1cccc(C2CC(c3cccs3)Nc3ncnn32)c1 (stereo not drawn) > 76.9 µM
O=C(O)c1ccc(NS(=O)(=O)/C=C/c2ccccc2)cc1O > 76.9 µM
C#CCN1C(=O)C(O)(CC(=O)c2cc(OC)ccc2OC)c2ccccc21 (stereo not drawn) > 76.9 µM
C=CCN1C(=O)CN=C1NCc1ccccc1 > 76.9 µM
Cn1c(SCC(=O)Nc2cccc(NC(=O)c3cccs3)c2)nnc1-c1ccncc1 > 76.9 µM
O=C(CN1CCN(c2ccccn2)CC1)N1c2ccccc2Sc2ccc(C(F)(F)F)cc21
Cc1cc(C)c(S(=O)(=O)NCc2cn3c(C)csc3n2)cc1C > 76.9 µM
O=C(Nc1ccccc1)N(Cc1cccnc1)Cc1ccco1 > 76.9 µM
CCc1sc(C(=O)NC)cc1Br > 76.9 µM
Cc1cccc2cc(CN(Cc3cccs3)C3(c4nnnn4C4CCCC4)CCCC3)c(=O)[nH]c12 > 76.9 µM
CCOC(=O)c1c(C)oc2c1c(/C=N/c1ccccn1)c(O)c1ccccc12 > 76.9 µM
Cc1ccc(C)c(N2CCN(C(=O)C3CCN(c4nnc(N5CCCC5=O)s4)CC3)CC2)c1 > 76.9 µM
COc1ccc(C(=O)Nc2ccc(Cl)cn2)cc1Cl > 76.9 µM
COc1cccc(N2C(=O)C3CC=C(Cl)CC3C2=O)c1 (stereo not drawn) > 76.9 µM
Cc1csc(NC(=O)c2ccoc2C)n1 > 76.9 µM
COc1cc(C2=NOC(C(=O)N3CCOCC3)C2)cc(OC)c1OC (stereo not drawn) > 76.9 µM
Cn1ccnc1Sc1nnnn1-c1ccccc1 > 76.9 µM
Cn1c(/C(C#N)=C(\O)c2ccc(S(=O)(=O)N3CCCCC3)cc2)nc2ccccc21 > 76.9 µM
O=C(NCc1ccc(F)cc1)c1ccc(CS(=O)(=O)Cc2ccccc2F)o1 > 76.9 µM
COc1cc2c(C#N)c(N3CCOCC3)nc(N)c2c(N)n1 > 76.9 µM
Nn1c(SCC(=O)Nc2ccc3c(c2)OCO3)nnc1C1CC1 > 76.9 µM
